# Results from paper PMC9911399, “Two distinct binding modes provide the RNA-binding protein RbFox with extraordinary sequence specificity”.
# Where a chain is given by its changes, count along the chain named. This is one part of the list.
# T1: RBFOX1 RRM (Homo sapiens, UniProt Q9NWB1 109-208)
# T1 sequence: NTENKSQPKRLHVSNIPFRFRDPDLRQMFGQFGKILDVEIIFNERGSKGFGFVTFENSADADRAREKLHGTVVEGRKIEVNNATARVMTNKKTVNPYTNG
# B1: CGAGGCC (DNA:RNA)
# RNA: GGGAGACCGGAAUUCAGAUUGUCCCGAGGCCUUAAAUCCCGUCGUAGCCACCA
# DNA 1: CAATCTGAATTCCGGTCTCCC
# DNA 2: TGGTGGCTACGACGGGATT
# B2: UGAAAGU (DNA:RNA)
# RNA: B1 RNA with C25U, G28A, G29A, C30G, C31U
# DNA 1: CAATCTGAATTCCGGTCTCCC
# DNA 2: TGGTGGCTACGACGGGATT
# B3: UUAUAGU (DNA:RNA)
# RNA: B1 RNA with C25U, G26U, G28U, G29A, C30G, C31U
# DNA 1: CAATCTGAATTCCGGTCTCCC
# DNA 2: TGGTGGCTACGACGGGATT
# B4: CAGCGGA (DNA:RNA)
# RNA: B1 RNA with G26A, A27G, G28C, C30G, C31A
# DNA 1: CAATCTGAATTCCGGTCTCCC
# DNA 2: TGGTGGCTACGACGGGATT
# B5: ACUGAUC (DNA:RNA)
# RNA: B1 RNA with C25A, G26C, A27U, G29A, C30U
# DNA 1: CAATCTGAATTCCGGTCTCCC
# DNA 2: TGGTGGCTACGACGGGATT
# B6: ACUCGGA (DNA:RNA)
# RNA: B1 RNA with C25A, G26C, A27U, G28C, C30G, C31A
# DNA 1: CAATCTGAATTCCGGTCTCCC
# DNA 2: TGGTGGCTACGACGGGATT
# B7: GGCCCUU (DNA:RNA)
# RNA: B1 RNA with C25G, A27C, G28C, G29C, C30U, C31U
# DNA 1: CAATCTGAATTCCGGTCTCCC
# DNA 2: TGGTGGCTACGACGGGATT
# B8: AGAUUCU (DNA:RNA)
# RNA: B1 RNA with C25A, G28U, G29U, C31U
# DNA 1: CAATCTGAATTCCGGTCTCCC
# DNA 2: TGGTGGCTACGACGGGATT
# B9: GUUUCUG (DNA:RNA)
# RNA: GGGAGACCGGAAUUCAGAUUGUCCGUUUCUGUUAAAUCCCGUCGUAGCCACCA
# DNA 1: CAATCTGAATTCCGGTCTCCC
# DNA 2: TGGTGGCTACGACGGGATT
# B10: ACCGCGG (DNA:RNA)
# RNA: B9 RNA with G25A, U26C, U27C, U28G, U30G
# DNA 1: CAATCTGAATTCCGGTCTCCC
# DNA 2: TGGTGGCTACGACGGGATT
# B11: GGCGCAC (DNA:RNA)
# RNA: B1 RNA with C25G, A27C, G29C, C30A
# DNA 1: CAATCTGAATTCCGGTCTCCC
# DNA 2: TGGTGGCTACGACGGGATT
# B12: UUGAUAU (DNA:RNA)
# RNA: B9 RNA with G25U, U27G, U28A, C29U, U30A, G31U
# DNA 1: CAATCTGAATTCCGGTCTCCC
# DNA 2: TGGTGGCTACGACGGGATT
# B13: GUAUCGU (DNA:RNA)
# RNA: B9 RNA with U27A, U30G, G31U
# DNA 1: CAATCTGAATTCCGGTCTCCC
# DNA 2: TGGTGGCTACGACGGGATT
# B14: UCUUUGU (DNA:RNA)
# RNA: B9 RNA with G25U, U26C, C29U, U30G, G31U
# DNA 1: CAATCTGAATTCCGGTCTCCC
# DNA 2: TGGTGGCTACGACGGGATT
# B15: AUAUAUC (DNA:RNA)
# RNA: B9 RNA with G25A, U27A, C29A, G31C
# DNA 1: CAATCTGAATTCCGGTCTCCC
# DNA 2: TGGTGGCTACGACGGGATT
# B16: UCAAAUG (DNA:RNA)
# RNA: B9 RNA with G25U, U26C, U27A, U28A, C29A
# DNA 1: CAATCTGAATTCCGGTCTCCC
# DNA 2: TGGTGGCTACGACGGGATT
# B17: AGUGGUG (DNA:RNA)
# RNA: B1 RNA with C25A, A27U, C30U, C31G
# DNA 1: CAATCTGAATTCCGGTCTCCC
# DNA 2: TGGTGGCTACGACGGGATT
# B18: UGGCGUA (DNA:RNA)
# RNA: B1 RNA with C25U, A27G, G28C, C30U, C31A
# DNA 1: CAATCTGAATTCCGGTCTCCC
# DNA 2: TGGTGGCTACGACGGGATT
# B19: UGUUUGG (DNA:RNA)
# RNA: B9 RNA with G25U, U26G, C29U, U30G
# DNA 1: CAATCTGAATTCCGGTCTCCC
# DNA 2: TGGTGGCTACGACGGGATT
# B20: GCCUUAA (DNA:RNA)
# RNA: B9 RNA with U26C, U27C, C29U, U30A, G31A
# DNA 1: CAATCTGAATTCCGGTCTCCC
# DNA 2: TGGTGGCTACGACGGGATT
# B21: ACCAUAA (DNA:RNA)
# RNA: GGGAGACCGGAAUUCAGAUUGUCCACCAUAAUUAAAUCCCGUCGUAGCCACCA
# DNA 1: CAATCTGAATTCCGGTCTCCC
# DNA 2: TGGTGGCTACGACGGGATT
# B22: UACAUAG (DNA:RNA)
# RNA: B21 RNA with A25U, C26A, A31G
# DNA 1: CAATCTGAATTCCGGTCTCCC
# DNA 2: TGGTGGCTACGACGGGATT
# B23: UGGUGCA (DNA:RNA)
# RNA: B1 RNA with C25U, A27G, G28U, C31A
# DNA 1: CAATCTGAATTCCGGTCTCCC
# DNA 2: TGGTGGCTACGACGGGATT
# B24: UCAAGAC (DNA:RNA)
# RNA: B21 RNA with A25U, C27A, U29G, A31C
# DNA 1: CAATCTGAATTCCGGTCTCCC
# DNA 2: TGGTGGCTACGACGGGATT
# B25: GGGCCCA (DNA:RNA)
# RNA: B1 RNA with C25G, A27G, G28C, G29C, C31A
# DNA 1: CAATCTGAATTCCGGTCTCCC
# DNA 2: TGGTGGCTACGACGGGATT
# B26: CAGAUUA (DNA:RNA)
# RNA: B21 RNA with A25C, C26A, C27G, A30U
# DNA 1: CAATCTGAATTCCGGTCTCCC
# DNA 2: TGGTGGCTACGACGGGATT
# B27: AGUCCGA (DNA:RNA)
# RNA: B21 RNA with C26G, C27U, A28C, U29C, A30G
# DNA 1: CAATCTGAATTCCGGTCTCCC
# DNA 2: TGGTGGCTACGACGGGATT
# B28: AGAUCUG (DNA:RNA)
# RNA: B9 RNA with G25A, U26G, U27A
# DNA 1: CAATCTGAATTCCGGTCTCCC
# DNA 2: TGGTGGCTACGACGGGATT
# B29: GUCCUCA (DNA:RNA)
# RNA: B21 RNA with A25G, C26U, A28C, A30C
# DNA 1: CAATCTGAATTCCGGTCTCCC
# DNA 2: TGGTGGCTACGACGGGATT
# B30: GUGUAAG (DNA:RNA)
# RNA: B9 RNA with U27G, C29A, U30A
# DNA 1: CAATCTGAATTCCGGTCTCCC
# DNA 2: TGGTGGCTACGACGGGATT
# B31: AACCAUG (DNA:RNA)
# RNA: B21 RNA with C26A, A28C, U29A, A30U, A31G
# DNA 1: CAATCTGAATTCCGGTCTCCC
# DNA 2: TGGTGGCTACGACGGGATT
# Target: T1, RBFOX1 RRM
# Test: EMSA; HiTS-Eq, 1 nM pool, 10 min; buffer printed only for the single-RNA assays: 10 mM Tris pH 7.5, 150 mM NaCl, 3.4 mM EDTA, 0.001% NP-40, 30 C
# Conditions: tags: His6 N-terminal (pET28a); label: 5' 32P
# Summary of the method: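 These values rest on relative association constants, computed from read-count changes of each RNA species versus the control reaction and normalised to the cognate motif. Reads came from free RNA recovered by 8% native PAGE after purified RbFox RRM (wild type or mutant) at increasing concentrations was equilibrated for 10 min in 50 µL with 1 nM of a 5′-radiolabelled pool with 7 randomized nucleotides and DNA-annealed flanks.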
row,Binder,binding signal
1,B1,0.01 KA relative to UGCAUGU
2,B2,0.0181 KA relative to UGCAUGU
3,B3,0.00868 KA relative to UGCAUGU
4,B4,0.00779 KA relative to UGCAUGU
5,B5,0.00911 KA relative to UGCAUGU
6,B6,0.00522 KA relative to UGCAUGU
7,B7,0.0136 KA relative to UGCAUGU
8,B8,0.00817 KA relative to UGCAUGU
9,B9,0.0265 KA relative to UGCAUGU
10,B10,0.0113 KA relative to UGCAUGU
11,B11,0.00838 KA relative to UGCAUGU
12,B12,0.00929 KA relative to UGCAUGU
13,B13,0.0117 KA relative to UGCAUGU
14,B14,0.0208 KA relative to UGCAUGU
15,B15,0.00202 KA relative to UGCAUGU
16,B16,0.00279 KA relative to UGCAUGU

row,Binder,binding signal
1,B17,0.0163 KA relative to UGCAUGU
2,B18,0.0143 KA relative to UGCAUGU
3,B19,0.0271 KA relative to UGCAUGU
4,B20,0.00672 KA relative to UGCAUGU
5,B21,0.000628 KA relative to UGCAUGU
6,B22,0.0117 KA relative to UGCAUGU
7,B23,0.0327 KA relative to UGCAUGU
8,B24,0.00462 KA relative to UGCAUGU
9,B25,0.0188 KA relative to UGCAUGU
10,B26,0.00255 KA relative to UGCAUGU
11,B27,0.0121 KA relative to UGCAUGU
12,B28,0.0129 KA relative to UGCAUGU
13,B29,0.00402 KA relative to UGCAUGU
14,B30,0.0113 KA relative to UGCAUGU
15,B31,0.00396 KA relative to UGCAUGU
